Measured values reported in patent publication US10463716B2 (UNIVERSITY OF MARYLAND, BALTIMORE, priority 2014, dated 2019).

T1: EGFP-tagged APJ receptor (Homo sapiens, UniProt P35414)
T1 construct: expressed in transfected cells
T1 sequence (P35414 1-380): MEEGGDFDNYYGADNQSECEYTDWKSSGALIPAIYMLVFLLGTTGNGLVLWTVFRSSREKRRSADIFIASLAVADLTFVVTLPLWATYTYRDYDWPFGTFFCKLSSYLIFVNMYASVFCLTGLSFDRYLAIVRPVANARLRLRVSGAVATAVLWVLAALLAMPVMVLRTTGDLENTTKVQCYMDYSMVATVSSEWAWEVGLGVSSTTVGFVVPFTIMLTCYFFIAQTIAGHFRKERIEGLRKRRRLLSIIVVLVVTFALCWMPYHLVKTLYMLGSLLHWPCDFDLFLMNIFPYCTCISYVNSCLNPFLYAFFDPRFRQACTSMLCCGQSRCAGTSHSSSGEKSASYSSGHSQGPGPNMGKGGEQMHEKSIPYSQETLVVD

B1: Fc-ELA-21: fusion protein: htPA secretion signal, human immunoglobulin Fc domain, hinge/linker, ELA-21 (protein)
chain: MDAMKRGLCCVLLLCGAVFVSPSQDI[human IgG1 Fc with changes not written out]GGGGSGGGGSGGGGSLRKHNCLQRRCMPLHSRVPFP
modifications: Synthetic Fc-ELA-21 or htPA-SS-Fc-ELA-21
B2: Fc-ELA-32: fusion protein: htPA secretion signal, human immunoglobulin Fc domain, hinge/linker, ELA-32; produced in HEK293 cells (protein)
chain: MDAMKRGLCCVLLLCGAVFVSPSQDI[human IgG1 Fc with changes not written out]GGGGSGGGGSGGGGSQRPVNLTMRRKLRKHNCLQRRCMPLHSRVPFP
modifications: Synthetic Fc-ELA-32 or htPA-SS-Fc-ELA-32
notes: fusion protein: htPA secretion signal, human immunoglobulin Fc domain, hinge/linker, ELA-32; produced in HEK293 cells

How the values were obtained:
EGFP-tagged APJ receptor = target: T1, EGFP-tagged APJ receptor; experiment: Internalization assay, HEK293 cells expressing EGFP-tagged APJ receptor; type: cell-based; conditions: 0.2 μM, 30 min, HEK293 over-expressing APJ-EGFP
Experimental: Confocal imaging was performed with a Zeiss LSM510 microscope.
The respective vector was introduced into HEK293 cells to produce the fusion protein in supernatant for purification by Protein A affinity chromatography and the resulting fusion protein was used for functional studied in cells and in animals. […] Next, Fc-32 was administered into a mouse subcutaneously and collected blood for serum level measurement by Western blotting.

[1] = Serum level / pharmacokinetics of Fc fusion proteins; type: in vivo; conditions: mouse, subcutaneous
Experimental: The respective vector was introduced into HEK293 cells to produce the fusion protein in supernatant for purification by Protein A affinity chromatography and the resulting fusion protein was used for functional studied in cells and in animals. […] Next, Fc-32 was administered into a mouse subcutaneously and collected blood for serum level measurement by Western blotting. In FIG. 18, Fc-ELA-32 acutely elevated 2 hours after subcutaneous administration and lasted up to 72 hours at a level above 0.5 μg/ml.

Sprague-Dawley rats = experiment: MI-induced heart failure by coronary artery ligation in rats, Fc-ELA-32; type: in vivo, rat
Experimental: It was studied whether Fc-ELA fusion proteins have cardioprotective activities in heart failure caused by myocardial infarction (MI) in rats. MI was inflicted by standard left anterior descending coronary artery ligation (CAL) in Sprague-Dawley rats (8-weeks old, male). One week post-operation, recombined Fc-ELA-32 protein was administrated by subcutaneous injection at the dosage of 300 μg/kg bodyweight/day for two weeks. Phosphate-buffered saline (PBS) was used as the control. One week after the administration or at the end of the four weeks of MI, cardiac performance was evaluated by a pressure transducer which was inserted retrograde from the right carotid artery to the left ventricle cavity. Heart tissue samples were taken and fixed with 4% paraformaldehyde for 24 hours and then embedded in paraffin and sectioned for histopathologic examination.
Apoptosis was assessed by terminal deoxynucleotidyl transferase-mediated dUTP nick end labeling (TUNEL) and caspase-3 activity assay. The TUNEL staining and methyl green counterstaining were performed using TdT-FragEL apoptosis detection kits (Calbiochem, San Diego, Calif.). TUNEL-positive nuclei in the LV free wall were counted within a 4-mm^2 square of field. The number was averaged over four randomly selected fields per section and five sections per heart.
Masson staining which specifically stains collagens in blue was conducted on tissue sections of the infarcted heart area. Collagen volume fraction (CVF) is calculated by dividing of the blue stained area, which scattered between the surviving myocytes and around the blood vessels by the total area. […]
Terminal deoxynucleotidyl transferase dUTP nick end labeling (TUNEL) is a method for detecting DNA fragmentation by labeling the terminal end of nucleic acids and is well used for measuring cell apoptosis. […] As a result, apoptotic cells were labeled by green fluorescence.

Row | Molecule | APJ-EGFP translocation / endocytosis (EGFP-tagged APJ receptor) | time serum level lasted above 0.5 μg/ml [1] | serum level ([1]; up to 72 hours, Western blotting) | LVEDP (Sprague-Dawley rats; MI rats, 300 μg/kg bodyweight/day subcutaneous for two weeks) | decrease in collagen volume fraction (CVF) (Sprague-Dawley rats; infarcted heart, Masson staining, vs control heart) [%] | cardiomyocytes stained by PCNA (proliferation) (Sprague-Dawley rats; near the infarct region, vs control)
1 | B1 | caused translocation or endocytosis of the receptor into cytoplasm |  |  |  |  | 
2 | B2 | caused translocation or endocytosis of the receptor into cytoplasm | up to 72 hours | above 0.5 μg/ml | decreased | 50 | more cardiomyocytes
